Experimental data: PubChem BioAssay AID1508624 (National Center for Advancing Translational Sciences (NCATS), 2021)
Out of some 48,000 compounds screened, about 120 (0.25%) were called active. Roughly 4% stayed inconclusive and do not appear here. The call rests on the fitted dose curve; in most records, active means well fitted activation curve with a large enough effect; inconclusive means small, poorly fitted or top-dose-only effect, or another doubt; inactive means no such curve, though single readings can be large or run the other way. The list shows a part of the results.

Assay: Primary qHTS for Identification of Small Molecule Activators of Huntingtin-Antisense Promoter Activity; further: nearly all actives have a fitted effect of over 55% in size
Conditions: HEK293 HTT-AS promoter firefly luciferase reporter, 24 h; series mostly up to 57.5 µM; activity change, positive = activation: at the top concentration
Method in brief: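 HEK293 Fluc reporter, 2,500 cells/well, 24 h pre-culture; cpds up to 57.5 uM final, 24 h 37 degrees C; Dual-Glo, 10 min RT; normalized vehicle = 0%, zero RLU = -100%.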

Structure (SMILES) | activity change, positive = activation
CCOC(=O)c1c(NC(C)=O)c2c3c(sc2n1Cc1nc(-c2ccccc2OCC)oc1C)CCCC3 | inactive: 2.7%
COc1cccc(NC(=O)Cn2cc(C(=O)C3CCCCC3)c3ccccc32)c1 | inactive: -28.6%
CC(C)(C)OC(=O)N[C@H]1CCCCCC=C[C@@H]2C[C@@]2(C(=O)NS(=O)(=O)C2CC2)NC(=O)[C@@H]2C[C@@H](OC(=O)N3Cc4cccc(F)c4C3)CN2C1=O | inactive: -22.2%
COc1cccc(CNC(=O)CN2C(=O)N(c3cc(C)ccc3C)S(=O)(=O)c3ccccc32)c1OC | inactive: -36.6%
COc1cc(C)c(Cl)cc1S(=O)(=O)NCCc1c(C)[nH]c2ccccc12 | inactive: -17.5%
Cc1ccc(C)c(CN2C(=O)c3ccccc3S(=O)c3ccc(C(=O)NCc4ccccc4Cl)cc32)c1 (stereo unspecified) | inactive: -15.2%
Cc1nc2c(c(C)c1CCC(=O)Nc1cccc(C(F)(F)F)c1)c(=O)n(C)c(=O)n2C | inactive: -11.5%
Cc1nnc(NC(=O)CSc2nccn2-c2cccc(Cl)c2)s1 | inactive: -13.3%
CC1CCCN(S(=O)(=O)c2cc3c(cc2Cl)NC(=O)CO3)C1 (stereo unspecified) | inactive: -25.5%
COc1ccc(C(=O)Nc2ccccc2C(=O)OCc2cc(=O)n3c4c(sc3n2)CCCC4)cc1 | inactive: -4.96%
O=C(CCC(=O)N1CC2CCCN2c2ccccc21)NCc1ccccc1Cl (stereo unspecified) | inactive: -20.3%
COc1ccc(-c2cc(=O)n3[nH]cnc3n2)cc1 | inactive: 24.2%
COc1ccccc1CNc1nc2nc(C)c(Cl)c(C)n2n1 | inactive: 6.33%
COC(=O)c1c(NC(=O)c2cccc(OC)c2)sc2c1CCC(C(C)(C)C)C2 (stereo unspecified) | inactive: -30.2%
Cc1cccc(-c2nc(SCC(=O)Nc3cc(C)on3)c3c(=O)n(C)c(=O)n(C)c3n2)c1 | inactive: -1.58%
Cc1ccc(NC(=O)N2CCC(N3CCN(Cc4ccccc4)C(=O)C3=O)CC2)cc1Cl | inactive: 6.39%
COc1ccc(N2CCN(c3ccc(-c4nc(-c5ccccc5C)no4)cc3[N+](=O)[O-])CC2)cc1 | inactive: -4.7%
Cc1ccc(-c2nnc(Nc3ccc(Br)cc3)c3ccccc23)cc1S(=O)(=O)N1CCOCC1 | inactive: -14.6%
COc1ccc(-n2c(=O)c3sc4ccccc4c3n(CC(=O)Nc3cccc(C)c3)c2=O)cc1 | inactive: 2.07%
COc1cc(C=C2CCC/C(=C\c3ccc(O)c(OC)c3)C2=O)ccc1O | inactive: -80.2%
Cc1ccc(NC(=O)C(Cc2ccccc2)NS(=O)(=O)c2ccc3c(c2)oc(=O)n3C)c(Cl)c1 (stereo unspecified) | inactive: -18.9%
COc1ccccc1NC(=O)c1cc(S(=O)(=O)N(C)C2CCCCC2)ccc1F | inactive: -27.8%
CC1=C(C(=O)Nc2ccccc2C)C(c2cccnc2)n2nc(SCc3ccccc3)nc2N1 (stereo unspecified) | inactive: -3.42%

Structure (SMILES) | activity change, positive = activation
COCCNC(=O)Cn1cc(S(=O)(=O)Cc2ccccc2Cl)c2ccccc21 | inactive: -3.09%
CCOC(=O)N1CCc2c(sc3c2c(=O)n(CCc2ccccc2)c(=O)n3Cc2cc(C)ccc2C)C1 | inactive: -14.8%
CCOc1ccccc1NC(=O)c1cn(C2CCCC2)c(=O)c2c1c1ccccc1n2C | inactive: -13.6%
COc1ccccc1NC(=O)C1=C(C)Nc2nc(SCc3ccccc3)nn2C1c1ccccn1 (stereo unspecified) | inactive: -32%
CCN(CC)S(=O)(=O)c1ccc2c(c1)N(CC(=O)NCCc1ccc(OC)c(OC)c1)C(=O)CO2 | inactive: -11%
COc1ccc(-c2nsc(NC(=O)COc3ccc(C)c(C)c3)n2)cc1 | inactive: -1.84%
CCc1ccccc1NC(=O)C1(S(=O)(=O)c2ccc(Cl)cc2)CC1 | inactive: -7.39%
Cc1ccc(C)c(N2CCN(C(=O)c3cc4ccc5cccnc5c4[nH]3)CC2)c1 | inactive: -7.48%
Cc1cc(C)cc(NC(=O)CN2C(=O)CSc3ccc(S(=O)(=O)N(C)C)cc32)c1 | inactive: -10.1%
Cc1ccc(OCC(=O)Nc2ccc(Cl)c(-c3nc4ncccc4o3)c2)cc1C | inactive: 21.6%
CCOC(=O)c1c(C)oc2ncnc(Nc3ccc(F)cc3Cl)c12 | inactive: -16.7%
COc1ccccc1CNC(=O)CCn1c(=O)c2ccccc2n(CC(=O)Nc2ccc(C)cc2)c1=O | inactive: -57.7%
Cc1cccc(CNC(=O)C2CCCN(S(=O)(=O)c3cn(C)cn3)C2)c1 (stereo unspecified) | inactive: 1.28%
CC(C)(C)[N+]([O-])=Cc1ccc(S(=O)(=O)O)cc1S(=O)(=O)O | inactive: -5.51%
Cn1nnnc1SCCCNCc1ccc(-c2ccc(Br)cc2)o1 | inactive: -22.7%
CCCCCn1c(=O)[nH]c2cc(C(=O)Nc3cc(OC)cc(OC)c3)ccc2c1=O | inactive: -32.9%
Cc1ccc2oc(=O)c3cc(C(=O)N4CCN(c5ccccc5)CC4)sc3c2c1 | inactive: -6.13%
CN(C)S(=O)(=O)c1ccc2c(c1)N(CC(=O)NCc1ccccc1)C(=O)C1CCCCN21 (stereo unspecified) | inactive: -6.58%
O=C(O)Cc1ccc(CCNS(=O)(=O)c2ccc(Cl)cc2)cc1 | inactive: -10.6%
CCCCCNC(=O)c1c[nH]c2ccc(S(=O)(=O)N3CCC(C)CC3)cc2c1=O | inactive: -6.35%
CCC1CN(C(=O)NCc2ccc(C)cc2)c2cc(C)ccc2O1 (stereo unspecified) | inactive: -19.2%
Cc1nn(S(=O)(=O)c2ccc(C(C)C)cc2)c(C)c1S(=O)(=O)N1CCCCCC1 | inactive: -6.7%
Cc1ccc(NC(=O)CSc2nc3ccccc3nc2Cc2ccccc2F)cc1F | inactive: -18.2%

Structure (SMILES) | activity change, positive = activation
CCCCOc1ccc(OC(=O)c2sc3ncn(Cc4cccc(F)c4)c(=O)c3c2C)cc1 | inactive: -4.49%
COc1cc2nc(SCc3ccc(Cl)cc3)n3nc(CCn4nc(C)cc4C)nc3c2cc1OC | inactive: -7.78%
CC(=O)c1sc2c(c1C)c(=O)n(-c1ccc(Cl)cc1)c(=O)n2Cc1cc(=O)n2cc(Cl)ccc2n1 | inactive: 14.3%
Cc1nn(C(=O)c2ccc(Cl)cc2)c(C)c1Sc1ccc(Cl)cc1 | inactive: -8.14%
NC(=O)c1nnn(Cc2cc(Cl)c(C(=O)c3ccc(Cl)cc3)c(Cl)c2)c1N | inactive: -7.47%
Cc1cc(NC(=O)CSc2nc(-c3ccccc3F)nc3c2c(=O)n(C)c(=O)n3C)no1 | inactive: -3.88%
CCCSc1nc2sc3c(c2c(=O)n1-c1ccccc1)CCC(C)C3 (stereo unspecified) | inactive: 0.981%
COc1ccc(-c2oc3ncn4nc(-c5cccc(C)c5)nc4c3c2-c2ccc(OC)cc2)cc1 | inactive: -13.7%
COc1cc(C(=O)Nc2nnc(S(=O)(=O)N(C)c3ccccc3)s2)cc(OC)c1OC | inactive: -28%
Cc1ccc(CN2C(=O)c3ccccc3Sc3ccc(C(=O)NC4CCCCC4)cc32)cc1 | inactive: -31.2%
COc1cc(C(=O)NCC(c2ccc(N(C)C)cc2)N2CCc3ccccc32)cc(OC)c1OC (stereo unspecified) | inactive: -27.1%
Cc1ccc(-c2nc3n(n2)C(c2ccccc2C)C=C(c2ccc(Cl)cc2)N3)cc1 (stereo unspecified) | inactive: -27.5%
COc1ccccc1CNC(=O)CS(=O)(=O)c1cccc2nsnc12 | inactive: -3.89%
COc1ccc(CCNC(=O)c2cc(-c3ccc(C)cc3)nc3n[nH]c(-c4ccccc4)c23)cc1OC | inactive: -9.87%
COc1ccc(OC)c(NC(=O)CCn2cnnn2)c1 | inactive: -13.1%
COc1ccc(CNC(=O)c2cc3c(=O)[nH]c4ccc(C)cc4c3s2)c(OC)c1 | inactive: -2.89%
O=C(CSc1ncc(CO)n1Cc1ccccc1)Nc1nc2ccccc2s1 | inactive: -41.3%
Cc1ccn2c(Nc3ccc(F)cc3)c(-c3ccc(C)o3)nc2c1 | inactive: -5.9%
O=C(NC1CC(=O)N(c2ccc(F)cc2)C1)c1cccs1 (stereo unspecified) | inactive: -7.05%
COC(=O)[C@@H]1CC2=CC(=O)CC[C@]2(C)[C@@]23O[C@@H]2C[C@@]2(C)[C@@H](CC[C@@]24CCC(=O)O4)[C@H]13 | inactive: -1.06%
CC(C)OC(=O)C1=CN(C(=O)c2ccc(F)c(F)c2)CC(C)(C)c2c1[nH]c1ccccc21 | inactive: -3.97%
COc1ccc(CNC(=O)C2CCN(c3nc4ccccc4[nH]3)CC2)c(OC)c1 | inactive: -6.52%
CN1CCN(C(c2ccccc2)c2ccccc2)CC1 | inactive: -11.2%

Structure (SMILES) | activity change, positive = activation
COc1cc(CN(C(=O)COc2ccc(Br)cc2)c2ccccn2)cc(OC)c1OC | inactive: -34.3%
CCOC(=O)c1ccc(NC(=O)CN2C(=O)C(C)(C)c3ccccc32)cc1 | inactive: -34.4%
Cc1ccc(C)c(NC(=O)c2cnn(-c3ccc(F)cc3F)c2C2CCNCC2)c1 | inactive: -6.98%
CC[C@H](CO)Nc1nc(NCc2ccccc2)c2ncn(C(C)C)c2n1 | inactive: -9.59%
CCCC12CN3CC(CCC)(CN(C1)C3c1ccc(OCc3ccccc3)cc1)C2=O (stereo unspecified) | inactive: 1.39%
Cc1cccc(C)c1NC(=O)CCSc1nc(-c2ccc3c(c2)OCO3)cc(C(F)(F)F)n1 | inactive: -10.3%
Cc1ccc(Nc2ccc(N3CCN(C(=O)c4cccc([N+](=O)[O-])c4)CC3)nn2)cc1 | inactive: -5.34%
COc1ccccc1NC(=O)CN(C)S(=O)(=O)c1cccc2cccnc12 | inactive: -13%
O=C(CSc1ncc2c(n1)-c1ccccc1N(Cc1ccc(Cl)cc1)S2(=O)=O)c1ccc(Cl)cc1 | inactive: -3.1%
Cc1cc(O)c(C(c2ccccc2)N2CCC(C)CC2)c(=O)n1Cc1ccco1 (stereo unspecified) | inactive: -11.7%
CCN(C(=O)c1sc2nc3n(c(=O)c2c1C)CCCC3)c1ccccc1F | inactive: -2.54%
CC(=O)c1ccc(NC(=O)CSc2nnc3ccc(-c4ccc(F)cc4)nn23)cc1 | inactive: 9.55%
Cc1ccc(CCNC(=O)c2cc(-c3ccccc3)n[nH]2)cc1 | inactive: -20.2%
CCC1=C(c2ccc(C)cc2)S(=O)(=O)N=C1N1CCC(C(=O)Nc2ccccc2C(=O)OC)CC1 | inactive: -33.2%
COc1ccc(CNC(=O)CCc2c(C)nn(-c3ccc(N4CCOCC4)nn3)c2C)c(OC)c1 | inactive: -13.6%
Cc1cn2c(=O)cc(COc3ccc(NC(=O)c4ccc(C(C)(C)C)cc4)cc3)nc2s1 | inactive: -2.56%
CN(C)c1ccc(C(CNC(=O)c2ccc(C(C)(C)C)cc2)N2CCCC2)cc1 (stereo unspecified) | inactive: -17.1%
Cc1cccc(NC(=O)C2CCCN2S(=O)(=O)c2cccc3nsnc23)c1C (stereo unspecified) | inactive: -19.5% [at 11.5 µM, percent change from vehicle, -100% = no light]
COc1ccc(-n2nc(C(=O)NCCc3ccc(Cl)cc3)c3c4ccccc4n(C)c3c2=O)cc1 | inactive: 3.86%
Cc1ccc(NC(=O)Cn2c(=O)n(CCC(=O)N3CCc4ccccc4C3)c(=O)c3ccccc32)c(C)c1 | inactive: -24.4%
COc1ccc(C2c3c(-c4ccccc4)n[nH]c3C(=O)N2c2ccc(C(=O)O)cc2)c(OC)c1 (stereo unspecified) | inactive: -15%
COc1cc(NC(=O)Cn2c(-c3ccccc3)cc(C(C)=O)c2C)cc(OC)c1 | inactive: -13.6%
